What all share (test): Primary Screen for Target Class Profiling of Small Molecule Inhibitors of Methyltransferases
The target in experiment [1] is Glycine N-methyltransferase (Homo sapiens) (UniProt Q14749). Conditions: purified enzyme, MTase-Glo SAH luminescence; measured here: GNMT inhibition; at 40 µM; stronger effect = lower value. A digest of the protocol: (§1)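 Each enzyme was reacted with SAM and its substrate, with compounds tested once at 40 uM; SAH formed was read by MTase-Glo luminescence.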
The target in experiment [2] is Guanidinoacetate N-methyltransferase (Homo sapiens) (UniProt Q14353). Conditions: purified enzyme, MTase-Glo SAH luminescence; measured here: GAMT inhibition; at 40 µM; stronger effect = lower value. A digest of the protocol:
as §1

The target of experiment [3] is Histamine N-methyltransferase (Homo sapiens) (UniProt P50135). Conditions: purified enzyme, MTase-Glo SAH luminescence; measured here: HNMT inhibition; at 40 µM; stronger effect = lower value. The method, boiled down:
as §1

For experiment [4], the target named is Nicotinamide N-methyltransferase (Homo sapiens) (UniProt P40261). Conditions: purified enzyme, MTase-Glo SAH luminescence; measured here: NNMT inhibition; at 40 µM; stronger effect = lower value. A digest of the protocol: as §1
Experiment [5] addresses Phenylethanolamine N-methyltransferase (Homo sapiens) (UniProt P11086). Conditions: purified enzyme, MTase-Glo SAH luminescence; measured here: PNMT inhibition; at 40 µM; stronger effect = lower value. The method, boiled down: as §1

The list shows a part of the results. The main result of the screen is listed elsewhere. These columns were measured beside it and carry no call.
% is set by controls: 0 for no effect and ±100 for the full control effect.

On to `CC(C)CCn1c(=O)c2ccc(C(=O)NC3CCCC3)cc2n2c(SCC(=O)c3ccccc3)nnc12`, for which the activity change, negative = inhibition in experiment [1] was 2.7%; in experiment [2] it was 0%; in experiment [3], 9.73%; in experiment [4] it was -3.24%; in experiment [5] it was 5.73%.

For `COc1cccc(C2c3cccn3-c3sc4c(c3CN2C(=O)Nc2cccc(C)c2)CCCC4)c1` (stereo not given), the activity change, negative = inhibition in experiment [1] was 1.06%; in experiment [2], 0%; in experiment [3] it was 5.33%; in experiment [4] it was -10.9%; in experiment [5], 4.4%.

On to `CC(C)=CCC/C(C)=C/CO[C@@H]1O[C@H](CO[C@@H]2O[C@@H](CO)[C@H](O)[C@H]2O)[C@@H](O)[C@H](O)[C@H]1O`, for which the activity change, negative = inhibition in experiment [1] was 5.36%; in experiment [2], 4.6%; in experiment [3], 13.7%; in experiment [4], -6.1%; in experiment [5], 6.18%.

Consider `COCCNC(=O)C(NC(=O)c1ccccc1)C1CCN(C(=O)C2CC2)CC1` (stereo not given), for which the activity change, negative = inhibition in experiment [1] is -4.08%; in experiment [2] it was -3.97%; in experiment [3], -1.03%; in experiment [4], -8.69%; in experiment [5], -1.34%.

With `CN(C)CCN(C)[C@@H]1[C@H](O)[C@H](CO)O[C@@H]1CN(Cc1ccc(Cl)cc1)Cc1cccc(Cl)c1`, the activity change, negative = inhibition is -5.02% in experiment [1]; -8.77% in experiment [2]; -15% in experiment [3]; -26.1% in experiment [4]; -8.14% in experiment [5].

On to `Cc1cc(C)cc(N2C(=O)CSc3c(c4ccccc4n3C)C2C(=O)NCc2ccccc2)c1` (stereo not given), for which the activity change, negative = inhibition in experiment [1] is 9.04%; in experiment [2], 0%; in experiment [3], 3.75%; in experiment [4], 4.34%; in experiment [5], 4.13%.

With `CC(C)CCn1c(=O)c2ccc(C(=O)NC3CCCC3)cc2n2c(=O)n(Cc3ccccc3F)nc12`, the activity change, negative = inhibition in experiment [1] worked out at 2.72%; in experiment [2], 0%; in experiment [3] it was 2.29%; in experiment [4], 1.93%; in experiment [5], 4.14%.

Consider `C[C@@H]1C(=O)O[C@H]2[C@H]1CC[C@@]1(C)Cc3sc(NC(=O)COc4ccccc4)nc3[C@@H](C)[C@H]21`, for which the activity change, negative = inhibition is -8.33% in experiment [1]; -6% in experiment [2]; -6.38% in experiment [3]; -9.86% in experiment [4]; -5.27% in experiment [5].

For the molecule `C/C=C(/C)C(=O)OC1C(OC(C)=O)C23C(O)OC4(CCC5C6(C)CCC(OC7OC(C(=O)O)C(O)C(OC8OC(CO)C(O)C(O)C8OC8OC(C)C(O)C(O)C8OC8OCC(O)C(O)C8O)C7OC7OC(CO)C(O)C(O)C7O)C(C)(C)C6CCC5(C)C4(C)CC2OC(C)=O)C3CC1(C)C` (stereo not given), the activity change, negative = inhibition in experiment [1] was 4.31%; in experiment [2], 2.88%; in experiment [3], -0.109%; in experiment [4], -4.95%; in experiment [5], 6.11%.

Take `COCCCN1C(=O)c2cc3occc3n2CC1(C)C(=O)NC1CCCCC1` (stereo not given): the activity change, negative = inhibition amounted to 0.758% in experiment [1]; 5.7% in experiment [2]; 2.99% in experiment [3]; 9.23% in experiment [4]; 1.41% in experiment [5].

For `CC(C)(C)OC(=O)NCCCC(=O)NCc1ccnc2[nH]ccc12`, the activity change, negative = inhibition was -6.12% in experiment [1]; -5.67% in experiment [2]; -6.05% in experiment [3]; -14.9% in experiment [4]; -8.97% in experiment [5].

On to `Cc1occc1C(=O)N1CCCC(O)(CNC(=O)N2CCOCC2)CC1` (stereo not given), for which the activity change, negative = inhibition is -0.633% in experiment [1]; -0.754% in experiment [2]; 3.82% in experiment [3]; 1.2% in experiment [4]; 3.22% in experiment [5].

Take `O=C(CCn1ccc2cc(S(=O)(=O)N3CCCC3)ccc21)NCCC1=CCCCC1`: the activity change, negative = inhibition in experiment [1] was -1.16%; in experiment [2], 2.41%; in experiment [3], 3.63%; in experiment [4] it was -1.41%; in experiment [5], 0.377%.

For the molecule `COc1ccc(OC2CN(Cc3cccnc3)C2)cc1`, the activity change, negative = inhibition was -3.9% in experiment [1]; -2.06% in experiment [2]; -2.15% in experiment [3]; -3.38% in experiment [4]; 0.386% in experiment [5].

Turning to `CC(C)CCn1c(=O)c2ccc(C(=O)NC(C)C)cc2n2c(=O)n(CC(=O)NC3CCCC3)nc12`, the activity change, negative = inhibition was 4.94% in experiment [1]; 0% in experiment [2]; 0.294% in experiment [3]; -2.3% in experiment [4]; 2.75% in experiment [5].

Take `O=C(Cc1ccccn1)N1CCC(C(=O)N2CCC(c3nc4ncccc4[nH]3)CC2)CC1`: the activity change, negative = inhibition in experiment [1] is -5.28%; in experiment [2] it was -5.92%; in experiment [3] it was -4.44%; in experiment [4], -11.9%; in experiment [5], -23.4%.

As for `COCCN1CCN(Cc2ccc(-c3n[nH]c4c3C(=O)c3c(NC(=O)NN5CCOCC5)cccc3-4)cc2)CC1`, the activity change, negative = inhibition is -16% in experiment [1]; -3.9% in experiment [2]; -9.93% in experiment [3]; -43.1% in experiment [4]; -29.9% in experiment [5].

As to `COc1ccc(CNC(=O)c2ncn3c2C(=O)N(C2CC2)C(C)(C(=O)NCc2ccccc2Cl)C3)cc1` (stereo not given), the activity change, negative = inhibition in experiment [1] was -1.65%; in experiment [2], 0.67%; in experiment [3], 4.71%; in experiment [4], -0.785%; in experiment [5], 4.76%.

For the molecule `CC(=O)Nc1ccc(OCC(=O)N2CCC(C)CC2)nc1`, the activity change, negative = inhibition in experiment [1] was -5.22%; in experiment [2], 0.315%; in experiment [3] it was 0.406%; in experiment [4], 3.92%; in experiment [5] it was 2.28%.

`Cc1ccc(Cn2c(=O)c3ccccc3n3c(-c4cccc(C)c4)nnc23)cc1`: the activity change, negative = inhibition in experiment [1] was 0.738%; in experiment [2], -42.6%; in experiment [3], 7.18%; in experiment [4], 6.21%; in experiment [5], 0.389%.

For `COc1ccc(CN2C[C@@H](CO)[C@H](c3ccncc3)C2)c(OC)c1`, the activity change, negative = inhibition in experiment [1] is -6%; in experiment [2], -2.7%; in experiment [3] it was -24%; in experiment [4], -50.2%; in experiment [5], -2.9%.

As to `C=CCOc1cccc(-c2nnc(CCC(=O)NCc3ccccc3)c(=O)[nH]2)c1`, the activity change, negative = inhibition is -13.8% in experiment [1]; -2.19% in experiment [2]; -2.68% in experiment [3]; -7.25% in experiment [4]; -20.6% in experiment [5].

`COc1cccc2cc3c(c(O[C@@H]4O[C@H](CO[C@@H]5O[C@H](CO)[C@@H](O)[C@H](O)[C@H]5O)[C@@H](O)[C@H](O)[C@H]4O)c12)C(C)OC3=O` (stereo not given in full): the activity change, negative = inhibition in experiment [1] was -4.14%; in experiment [2], -15.2%; in experiment [3], 3.5%; in experiment [4] it was -19.1%; in experiment [5], -47.9%.

On to `CCOc1ccccc1CNC(=O)c1ncn2c1C(=O)N(CC)C(C)(C(=O)NC1CCCC1)C2` (stereo not given), for which the activity change, negative = inhibition in experiment [1] was -0.119%; in experiment [2] it was 0%; in experiment [3] it was 10.2%; in experiment [4], 5.74%; in experiment [5], 4.63%.

Consider `CCCn1c(=O)c2ccc(C(=O)NC3CCCC3)cc2n2c(=O)n(CC(=O)N(C)c3ccccc3)nc12`, for which the activity change, negative = inhibition in experiment [1] amounted to 7.2%; in experiment [2], 1.71%; in experiment [3], 14%; in experiment [4] it was 2.12%; in experiment [5] it was 6.41%.

With `COc1ccc(C(=O)Nc2ncc(-c3ccc(C(=O)O)cc3)s2)cc1`, the activity change, negative = inhibition in experiment [1] is -16.8%; in experiment [2], 1.52%; in experiment [3], 10.5%; in experiment [4], -10.8%; in experiment [5], 4.04%.

For `CCOC(=O)c1cc2n(n1)CC(C)(C(=O)NCc1ccc(C)cc1)N(CCc1ccc(Cl)cc1)C2=O` (stereo not given), the activity change, negative = inhibition in experiment [1] is 2.14%; in experiment [2], 0%; in experiment [3], 4.2%; in experiment [4], -2.11%; in experiment [5] it was 1.4%.

As for `COc1ccc(-n2ncc3c2CC(C)(C)CC3NC(=O)c2cc(C)[nH]n2)cc1` (stereo not given), the activity change, negative = inhibition in experiment [1] is -7.85%; in experiment [2] it was -8.96%; in experiment [3], -5.74%; in experiment [4], -21.6%; in experiment [5] it was 7.11%.

The values above are taken from PubChem BioAssay AID1745853 (National Center for Advancing Translational Sciences (NCATS), 2022).
